Experimental data from the BET-seq Pho4 binding data (Le et al. 2018).
The list shows a part of the results. These are noisy estimates, calculated here from bound and input reads.

Molecular target: T1, Pho4 (S. cerevisiae) (UniProt P07270)
T1 sequence: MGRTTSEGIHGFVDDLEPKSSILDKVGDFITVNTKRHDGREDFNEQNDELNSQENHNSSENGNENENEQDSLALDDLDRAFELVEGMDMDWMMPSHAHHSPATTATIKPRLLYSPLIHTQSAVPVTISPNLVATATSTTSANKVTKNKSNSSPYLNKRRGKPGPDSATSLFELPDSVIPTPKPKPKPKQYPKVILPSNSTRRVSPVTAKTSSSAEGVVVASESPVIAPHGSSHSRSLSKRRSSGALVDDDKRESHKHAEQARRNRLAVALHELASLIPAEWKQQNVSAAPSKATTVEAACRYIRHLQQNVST
Assay: relative binding free energy (BET-seq); higher = weaker binding
Settings: reference: library average

Sequence | relative binding free energy [kcal/mol]
GAGTTCACGTGGGTAG | 0.3
AGGGGCACGTGTCTGA | -0.1
GGAGTCACGTGTCAGG | 0.14
CGTGTCACGTGGATTT | 0.22
GGCGCCACGTGATGTG | 0.12
TGATACACGTGAGGTC | 0.36
TAGTACACGTGTGGGC | 0.06
TGTACCACGTGGGGGG | -0.14
TAGGCCACGTGGGTTG | -0.14
GTTAGCACGTGTGTGA | 0.05
AAACTCACGTGTGGTG | 0.17
CTCTTCACGTGTGTGG | 0.27
TAGTGCACGTGCCGTG | -0.01
AGATGCACGTGGGAAC | 0.03
TTGCGCACGTGGCGTA | -0.3
TCCATCACGTGGGTGG | 0.11
TTCGTCACGTGATGCG | 0.22
CTGCGCACGTGAGGTG | 0.08
AGGGCCACGTGTTATG | -0.13
GGGGACACGTGCTGTA | -0.01
TAACTCACGTGTTGTT | 0.17
GTCCGCACGTGAGGGG | 0.06
CGGATCACGTGATTTT | 0.35

Sequence | relative binding free energy [kcal/mol]
CGTGTCACGTGTCGAG | 0.05
GAGTTCACGTGGTTGC | 0.4
TTATACACGTGAGGGA | 0.11
CGTGGCACGTGTTTGG | -0.15
TTTAGCACGTGAGCTT | 0.2
TTACACACGTGTAAGT | 0.19
ATTGACACGTGTTACT | -0.01
GAGGTCACGTGGATTA | 0.23
TATGACACGTGCTGTG | 0.01
TCTGTCACGTGGTGGA | -0.01
TGTAACACGTGTATGC | 0.02
TATAACACGTGTTGAG | -0.06
ATTTACACGTGTCGGT | 0.21
AAGAACACGTGTGGGC | 0.15
GTTGACACGTGCTTGG | 0.1
GCTGGCACGTGCGGAT | -0.05
GGGGTCACGTGAGGGC | 0.34
TAAATCACGTGTTGGT | 0.07
TCGTGCACGTGGAAGA | 0.16
AGTTACACGTGTTTTG | 0.07
TTCATCACGTGGTATG | 0.08
CTTATCACGTGTGGAA | 0.25
GCATTCACGTGGGTTG | 0.1

Sequence | relative binding free energy [kcal/mol]
AATGGCACGTGATGCG | -0.01
AGGGTCACGTGGTGTT | 0.01
AGAGGCACGTGCGTGA | -0.06
TTTTGCACGTGGCGGA | -0.09
GGATTCACGTGATGGA | 0.47
TGTAGCACGTGGTCGT | -0.24
TGTAGCACGTGCGCTT | -0.21
TTGTACACGTGGTAAT | -0.04
CTATTCACGTGTAGTG | 0.12
TGTGACACGTGCAGTG | -0.14
TTAGGCACGTGTTGTA | -0.09
ACGGGCACGTGGAGAT | -0.05
TTGATCACGTGGTGAT | 0.14
TGAAACACGTGGGCAT | -0.07
CTTTGCACGTGTGAGA | 0.07
TTATACACGTGAGATT | 0.46
ATTAACACGTGGTCGT | -0.09
GATTGCACGTGAGTGC | 0.49
CTGTGCACGTGGGTGC | -0.25
TGTTTCACGTGCTCGT | 0.13
ATGAACACGTGAGATG | 0.31
ATTAGCACGTGGCTGT | -0.22
TTGGGCACGTGACATA | 0.03

Sequence | relative binding free energy [kcal/mol]
TCTAACACGTGGTGGG | 0.14
TTACTCACGTGATGTG | 0.15
GAGGTCACGTGGACAG | 0.21
AGTTGCACGTGCTTGG | 0.06
AGCCTCACGTGGGTGG | -0.04
GATTGCACGTGGTGCT | -0.02
ATGGTCACGTGTTACG | 0.01
ATTGGCACGTGAAAGG | 0.17
TTTGACACGTGTTCAG | -0.02
GGAAACACGTGAGTGG | 0.18
GTTCGCACGTGTATTG | -0.03
TGGTACACGTGGGGTA | -0.14
TGGGTCACGTGCACGG | -0.07
ATAGTCACGTGTGTGC | 0.02
TAGGACACGTGAATGG | 0.21
TGTGTCACGTGCGTTA | -0.01
TAGGTCACGTGTCAGG | 0.19
ATTGGCACGTGGCTAG | -0.19
GACAGCACGTGAGGGG | 0.06
TCGTGCACGTGACGGG | 0.01
TGATGCACGTGGTGTC | -0.18
ATTTTCACGTGCATGA | 0.31
GTAGTCACGTGGGTTT | 0.11

Sequence | relative binding free energy [kcal/mol]
GTGTACACGTGTTGTA | 0.08
GTGGACACGTGAGGCA | 0.26
GTCGACACGTGTTGGG | 0.13
TAGGCCACGTGGTGTT | -0.15
CGAGTCACGTGAGTGA | 0.29
AAGGGCACGTGTGGCC | -0.08
GGAGTCACGTGGATGA | 0.18
TATTACACGTGTTCGT | 0.15
TGTGGCACGTGGAGAT | -0.03
AGAATCACGTGGGGGC | 0.19
GAAAGCACGTGGTGAT | 0.03
GAGGTCACGTGAGTAT | 0.43
TGGTACACGTGAGTGC | 0.23
AAATTCACGTGGTGCA | 0.21
GGTTACACGTGTGGAC | 0.29
ATATGCACGTGGTTTG | -0.21
TAGAACACGTGGGGGT | -0.07
AATGTCACGTGGAAAT | 0.37
TTTGCCACGTGGTTTA | -0.02
TATGACACGTGGTAAG | -0.01
TGGTGCACGTGAGAAA | 0.09
CTATGCACGTGAGGGA | 0.2
TGGAGCACGTGAGTTG | 0.12
